Data published in article PMC9911399, “Two distinct binding modes provide the RNA-binding protein RbFox with extraordinary sequence specificity”.
Residue numbers refer to the chain shown, from its start. The list shows a part of the results.

T1: RBFOX1 RRM RbFoxmut (Fox-RRM*) (Homo sapiens, UniProt Q9NWB1 109-208, R118D;E147R;N151S;E152T)
T1 sequence: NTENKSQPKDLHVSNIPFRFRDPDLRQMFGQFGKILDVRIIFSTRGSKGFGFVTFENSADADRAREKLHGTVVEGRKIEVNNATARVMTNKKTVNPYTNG

B1: UUAGAAG (DNA:RNA)
RNA: GGGAGACCGGAAUUCAGAUUGUCCUUAGAAGUUAAAUCCCGUCGUAGCCACCA
DNA 1: CAATCTGAATTCCGGTCTCCC
DNA 2: TGGTGGCTACGACGGGATT
B2: ACCCGAA (DNA:RNA)
RNA: B1 RNA with U25A, U26C, A27C, G28C, A29G, G31A
DNA 1: CAATCTGAATTCCGGTCTCCC
DNA 2: TGGTGGCTACGACGGGATT
B3: AGGCACC (DNA:RNA)
RNA: B1 RNA with U25A, U26G, A27G, G28C, A30C, G31C
DNA 1: CAATCTGAATTCCGGTCTCCC
DNA 2: TGGTGGCTACGACGGGATT
B4: GGAUGGA (DNA:RNA)
RNA: B1 RNA with U25G, U26G, G28U, A29G, A30G, G31A
DNA 1: CAATCTGAATTCCGGTCTCCC
DNA 2: TGGTGGCTACGACGGGATT
B5: AAGCGAG (DNA:RNA)
RNA: B1 RNA with U25A, U26A, A27G, G28C, A29G
DNA 1: CAATCTGAATTCCGGTCTCCC
DNA 2: TGGTGGCTACGACGGGATT
B6: GUCAAAA (DNA:RNA)
RNA: B1 RNA with U25G, A27C, G28A, G31A
DNA 1: CAATCTGAATTCCGGTCTCCC
DNA 2: TGGTGGCTACGACGGGATT
B7: UCUACGU (DNA:RNA)
RNA: B1 RNA with U26C, A27U, G28A, A29C, A30G, G31U
DNA 1: CAATCTGAATTCCGGTCTCCC
DNA 2: TGGTGGCTACGACGGGATT
B8: UGCGGAG (DNA:RNA)
RNA: B1 RNA with U26G, A27C, A29G
DNA 1: CAATCTGAATTCCGGTCTCCC
DNA 2: TGGTGGCTACGACGGGATT
B9: UGUAGGU (DNA:RNA)
RNA: B1 RNA with U26G, A27U, G28A, A29G, A30G, G31U
DNA 1: CAATCTGAATTCCGGTCTCCC
DNA 2: TGGTGGCTACGACGGGATT
B10: GUCUCAC (DNA:RNA)
RNA: B1 RNA with U25G, A27C, G28U, A29C, G31C
DNA 1: CAATCTGAATTCCGGTCTCCC
DNA 2: TGGTGGCTACGACGGGATT
B11: ACUCGCC (DNA:RNA)
RNA: GGGAGACCGGAAUUCAGAUUGUCCACUCGCCUUAAAUCCCGUCGUAGCCACCA
DNA 1: CAATCTGAATTCCGGTCTCCC
DNA 2: TGGTGGCTACGACGGGATT
B12: UAAAUCG (DNA:RNA)
RNA: B1 RNA with U26A, G28A, A29U, A30C
DNA 1: CAATCTGAATTCCGGTCTCCC
DNA 2: TGGTGGCTACGACGGGATT
B13: UGCACAU (DNA:RNA)
RNA: B1 RNA with U26G, A27C, G28A, A29C, G31U
DNA 1: CAATCTGAATTCCGGTCTCCC
DNA 2: TGGTGGCTACGACGGGATT
B14: UUAUUGU (DNA:RNA)
RNA: B1 RNA with G28U, A29U, A30G, G31U
DNA 1: CAATCTGAATTCCGGTCTCCC
DNA 2: TGGTGGCTACGACGGGATT
B15: UGAAUAG (DNA:RNA)
RNA: B1 RNA with U26G, G28A, A29U
DNA 1: CAATCTGAATTCCGGTCTCCC
DNA 2: TGGTGGCTACGACGGGATT
B16: GGCCGAA (DNA:RNA)
RNA: B11 RNA with A25G, C26G, U27C, C30A, C31A
DNA 1: CAATCTGAATTCCGGTCTCCC
DNA 2: TGGTGGCTACGACGGGATT
B17: UUGUCGA (DNA:RNA)
RNA: B1 RNA with A27G, G28U, A29C, A30G, G31A
DNA 1: CAATCTGAATTCCGGTCTCCC
DNA 2: TGGTGGCTACGACGGGATT
B18: UCUGCCA (DNA:RNA)
RNA: B11 RNA with A25U, C28G, G29C, C31A
DNA 1: CAATCTGAATTCCGGTCTCCC
DNA 2: TGGTGGCTACGACGGGATT
B19: UACCCCA (DNA:RNA)
RNA: B11 RNA with A25U, C26A, U27C, G29C, C31A
DNA 1: CAATCTGAATTCCGGTCTCCC
DNA 2: TGGTGGCTACGACGGGATT
B20: UCUGUUA (DNA:RNA)
RNA: B11 RNA with A25U, C28G, G29U, C30U, C31A
DNA 1: CAATCTGAATTCCGGTCTCCC
DNA 2: TGGTGGCTACGACGGGATT
B21: AUAUCAG (DNA:RNA)
RNA: B1 RNA with U25A, G28U, A29C
DNA 1: CAATCTGAATTCCGGTCTCCC
DNA 2: TGGTGGCTACGACGGGATT
B22: CCAGGUC (DNA:RNA)
RNA: B11 RNA with A25C, U27A, C28G, C30U
DNA 1: CAATCTGAATTCCGGTCTCCC
DNA 2: TGGTGGCTACGACGGGATT
B23: GAUGGCC (DNA:RNA)
RNA: B11 RNA with A25G, C26A, C28G
DNA 1: CAATCTGAATTCCGGTCTCCC
DNA 2: TGGTGGCTACGACGGGATT
B24: UCGGUAC (DNA:RNA)
RNA: B1 RNA with U26C, A27G, A29U, G31C
DNA 1: CAATCTGAATTCCGGTCTCCC
DNA 2: TGGTGGCTACGACGGGATT
B25: UGAGGAG (DNA:RNA)
RNA: B1 RNA with U26G, A29G
DNA 1: CAATCTGAATTCCGGTCTCCC
DNA 2: TGGTGGCTACGACGGGATT
B26: GUCGAAC (DNA:RNA)
RNA: B1 RNA with U25G, A27C, G31C
DNA 1: CAATCTGAATTCCGGTCTCCC
DNA 2: TGGTGGCTACGACGGGATT
B27: GGGCAGC (DNA:RNA)
RNA: B11 RNA with A25G, C26G, U27G, G29A, C30G
DNA 1: CAATCTGAATTCCGGTCTCCC
DNA 2: TGGTGGCTACGACGGGATT
B28: CAGUCUA (DNA:RNA)
RNA: GGGAGACCGGAAUUCAGAUUGUCCCAGUCUAUUAAAUCCCGUCGUAGCCACCA
DNA 1: CAATCTGAATTCCGGTCTCCC
DNA 2: TGGTGGCTACGACGGGATT
B29: GGCAUCC (DNA:RNA)
RNA: B11 RNA with A25G, C26G, U27C, C28A, G29U
DNA 1: CAATCTGAATTCCGGTCTCCC
DNA 2: TGGTGGCTACGACGGGATT
B30: UAGAAUU (DNA:RNA)
RNA: B28 RNA with C25U, U28A, C29A, A31U
DNA 1: CAATCTGAATTCCGGTCTCCC
DNA 2: TGGTGGCTACGACGGGATT
B31: UUUUCUG (DNA:RNA)
RNA: B28 RNA with C25U, A26U, G27U, A31G
DNA 1: CAATCTGAATTCCGGTCTCCC
DNA 2: TGGTGGCTACGACGGGATT

Target: T1, RBFOX1 RRM RbFoxmut (Fox-RRM*)
Assay: EMSA; HiTS-Eq, 1 nM pool, 10 min; buffer printed only for the single-RNA assays: 10 mM Tris pH 7.5, 150 mM NaCl, 3.4 mM EDTA, 0.001% NP-40, 30 C
Settings: tags: His6 N-terminal (pET28a); label: 5' 32P
How it was run: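 Relative association constants, normalised to the cognate motif, were derived by comparing read counts of each RNA species with those of the control reaction. The RNA sequenced was the free fraction, separated by 8% native PAGE after a 10 min equilibration in 50 µL of 1 nM 5′-radiolabelled RNA (7 randomized nucleotides) with increasing concentrations of purified wild-type or mutant RbFox RRM.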

Row | Binder | binding signal
1 | B1 | 0.103 KA relative to UGCAUGU
2 | B2 | 0.103 KA relative to UGCAUGU
3 | B3 | 0.0617 KA relative to UGCAUGU
4 | B4 | 0.0824 KA relative to UGCAUGU
5 | B5 | 0.138 KA relative to UGCAUGU
6 | B6 | 0.115 KA relative to UGCAUGU
7 | B7 | 0.118 KA relative to UGCAUGU
8 | B8 | 0.114 KA relative to UGCAUGU
9 | B9 | 0.126 KA relative to UGCAUGU
10 | B10 | 0.0695 KA relative to UGCAUGU
11 | B11 | 0.0934 KA relative to UGCAUGU
12 | B12 | 0.0677 KA relative to UGCAUGU
13 | B13 | 0.0893 KA relative to UGCAUGU
14 | B14 | 0.158 KA relative to UGCAUGU
15 | B15 | 0.0871 KA relative to UGCAUGU
16 | B16 | 0.066 KA relative to UGCAUGU

Row | Binder | binding signal
17 | B17 | 0.102 KA relative to UGCAUGU
18 | B18 | 0.0841 KA relative to UGCAUGU
19 | B19 | 0.0775 KA relative to UGCAUGU
20 | B20 | 0.112 KA relative to UGCAUGU
21 | B21 | 0.0949 KA relative to UGCAUGU
22 | B22 | 0.107 KA relative to UGCAUGU
23 | B23 | 0.151 KA relative to UGCAUGU
24 | B24 | 0.0961 KA relative to UGCAUGU
25 | B25 | 0.105 KA relative to UGCAUGU
26 | B26 | 0.07 KA relative to UGCAUGU
27 | B27 | 0.0841 KA relative to UGCAUGU
28 | B28 | 0.0907 KA relative to UGCAUGU
29 | B29 | 0.229 KA relative to UGCAUGU
30 | B30 | 0.0987 KA relative to UGCAUGU
31 | B31 | 0.0689 KA relative to UGCAUGU
